{"source": "PubChem BioAssay AID1508624", "about": "(National Center for Advancing Translational Sciences (NCATS), 2021)", "note": "Among all 48,000 compounds or so, about 120 (0.25%) were called active. Not shown: some 4% with an inconclusive outcome. Calls follow the shape of the dose curve; as a rule, active = well fitted activation curve with a large enough effect; inconclusive = small, poorly fitted or top-dose-only effect, or another doubt; inactive = no such curve, though single readings can be large or run the other way. Only a part is listed here, and it is no random draw. The source gives no active or inactive call for entries shown without one."}
{"test": "Primary qHTS for Identification of Small Molecule Activators of Huntingtin-Antisense Promoter Activity; also: nearly all actives have a fitted effect of over 55% in size", "conditions": "HEK293 HTT-AS promoter firefly luciferase reporter, 24 h; activity change, positive = activation: at 57.5 µM (top of the series), percent change from vehicle, -100% = no light", "how_it_was_run": "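Quantitative HTS used concentration series of up to 57.5 uM final on HEK293 luciferase reporter cells, 24 h at 37 degrees C. Readout was Dual-Glo firefly luminescence.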"}
{"smiles": "COc1cc(NC(=O)CC2C(=O)N(c3cccc(C)c3)C(=O)N2Cc2cccs2)cc(OC)c1", "note": "(stereo not given)", "activity change, positive = activation": "-33.6%"}
{"smiles": "COc1ccc(-c2nc(SCC(=O)Nc3ccc4c(c3)OCCO4)c(-c3ccccc3)[nH]2)cc1", "activity change, positive = activation": "inactive: -7.96%"}
{"smiles": "CCOC(=O)/C(C#N)=C/c1ccc(-c2ccc(C)cc2)o1", "activity change, positive = activation": "62.5%"}
{"smiles": "CCOC(=O)c1cc(C)n(CC2CCC(C(=O)Nc3cc(OC)cc(OC)c3)CC2)c1C", "note": "(stereo not given)", "activity change, positive = activation": "-16.6%"}
{"smiles": "COc1ccc(CCN2C(=O)c3[nH]nc(-c4ccccc4O)c3C2c2ccccc2)cc1", "note": "(stereo not given)", "activity change, positive = activation": "inactive: -30.1%"}
{"smiles": "CCOc1ccc(CNC(=O)CCc2c(C)nn(-c3ccc(N4CCCCC4)nn3)c2C)cc1", "activity change, positive = activation": "-12.1%"}
{"smiles": "Cc1ccc(NC(=O)c2c(C)oc3ccc(O)c(CN4CCOCC4)c23)cc1", "activity change, positive = activation": "-10.9%"}
{"smiles": "Cc1ccc(OCCCn2c(-c3ccc(Cl)cc3)nc3ccccc3c2=O)cc1C", "activity change, positive = activation": "-6.23%"}
{"smiles": "CCc1cccc(NC(=O)CC(c2ccc(OC)cc2)N2Cc3ccccc3C2=O)c1", "note": "(stereo not given)", "activity change, positive = activation": "-27%"}
{"smiles": "Cc1oc(=O)oc1COC(=O)[C@@H]1N2C(=O)[C@@H](NC(=O)[C@H](N)c3ccccc3)[C@H]2SC1(C)C", "activity change, positive = activation": "inactive: -0.618%"}
{"smiles": "CCOC(=O)c1c(NC(=O)c2cc(-c3cccc(Cl)c3)on2)sc(C)c1C", "activity change, positive = activation": "-5.13%"}
{"smiles": "COc1ccccc1CNC(=O)CCc1c(C)c2cc3c(C)coc3cc2oc1=O", "activity change, positive = activation": "-3.2%"}
{"smiles": "CCOc1ccc2nc(Cl)c(C3CC(c4ccc(C)cc4)=NN3C(=O)CCC(=O)O)cc2c1", "note": "(stereo not given)", "activity change, positive = activation": "-7.09%"}
{"smiles": "Cc1c(Cl)cccc1NC(=O)CCS(=O)(=O)c1ccc2c(c1)CC(C)N2C(=O)C1CC1", "note": "(stereo not given)", "activity change, positive = activation": "-24.4%"}
{"smiles": "COc1cccc(-c2nnc(SCC(=O)N(C)C3CCCCC3)o2)c1", "activity change, positive = activation": "inactive: 0.954%"}
{"smiles": "COc1cccc(N2C(=O)C(CC(=O)Nc3cccc(F)c3)N(C3CCCC3)C2=O)c1", "note": "(stereo not given)", "activity change, positive = activation": "-14.4%"}
{"smiles": "Cc1nc2ccn(Cc3ccco3)c(=O)c2cc1C(=O)NCc1ccc(Cl)cc1", "activity change, positive = activation": "-14.6%"}
{"smiles": "CCCOc1ccc(C2C(=O)N(C3CCC(C)CC3)CC(=O)N2CCc2ccccc2)cc1OC", "note": "(stereo not given)", "activity change, positive = activation": "-10.6%"}
{"smiles": "Cc1ccc(NC(=O)/C=C\\C(=O)N(c2ccc(C(C)C)cc2)C(C(=O)NCc2ccco2)c2ccc(Cl)cc2)cc1", "note": "(stereo not given)", "activity change, positive = activation": "-39.2%"}
{"smiles": "CC1CCN(c2nn3c(=O)c(C(=O)NCCCOC(C)C)cnc3s2)CC1", "activity change, positive = activation": "4.83%"}
{"smiles": "CN(C)c1ccc(/C=C/c2nc(-c3ccccc3O)n(-c3ccccc3)n2)cc1", "activity change, positive = activation": "-6.23%"}
{"smiles": "COc1ccc(NC(=O)c2c(C)oc3ccc(O)c(CN4CCC(C)CC4)c23)cc1Cl", "activity change, positive = activation": "-24.6%"}
{"smiles": "O=C(CSc1nc2ccccc2nc1Cc1ccc(Cl)cc1)Nc1ccc2c(c1)OCO2", "activity change, positive = activation": "6.06%"}
{"smiles": "COCCNC(=O)c1cnc2sc(N3CCCCC3)nn2c1=O", "activity change, positive = activation": "-4.63%"}
{"smiles": "O=c1c(-c2ccc(Cl)cc2)c(C(F)(F)F)oc2c(CN3CCCCC3)c(O)ccc12", "activity change, positive = activation": "-10.8%"}
{"smiles": "Cc1ccc(NS(=O)(=O)c2ccc3c(c2)CC(C)N3C(=O)C2CCC2)cc1Cl", "note": "(stereo not given)", "activity change, positive = activation": "-42.7%"}
{"smiles": "CCOc1ccc(CCNC(=O)c2cnc3sc(N4CCC(C)CC4)nn3c2=O)cc1", "activity change, positive = activation": "6.79%"}
{"smiles": "O=C(NCc1ccc(Cl)cc1)C1CCN(S(=O)(=O)Cc2ccccc2)CC1", "activity change, positive = activation": "-0.597%"}
{"smiles": "CN(Cc1ccccc1)C(=O)c1cc(-c2cccc(Cl)c2)on1", "activity change, positive = activation": "3.18%"}
{"smiles": "CC(C)Oc1ccc(CNC(=O)C2CCCCN2S(=O)(=O)c2ccc(F)cc2)cc1", "note": "(stereo not given)", "activity change, positive = activation": "-16.8%"}
{"smiles": "CCOc1ccc(CCNC(=O)c2cccc(-n3c(C)nc4cccnc43)c2C)cc1", "activity change, positive = activation": "inactive: -24.2%"}
{"smiles": "CCOCCCNC(=O)c1cnc2sc(N3CCCCC3)nn2c1=O", "activity change, positive = activation": "5.77%"}
{"smiles": "Cc1c(CCC(=O)NCCc2ccc(Cl)cc2)c(=O)oc2c(C)c(O)ccc12", "activity change, positive = activation": "5.68%"}
{"smiles": "Cc1cc(C)n(C(C)CC(=O)Nc2cccc(C(F)(F)F)c2)n1", "note": "(stereo not given)", "activity change, positive = activation": "inactive: -18.2%"}
{"smiles": "COc1ccc(S(=O)(=O)NCC(c2ccco2)S(=O)(=O)c2ccc(C)cc2)cc1F", "note": "(stereo not given)", "activity change, positive = activation": "inactive: -8.49%"}
{"smiles": "CCOC(=O)c1ccc(NC(=O)CC2C(=O)N(c3ccc(F)cc3)C(=O)N2Cc2cccnc2)cc1", "note": "(stereo not given)", "activity change, positive = activation": "-9.25%"}
{"smiles": "Cc1c(CCC(=O)NCCc2ccccc2)c(=O)oc2c(C)c(O)ccc12", "activity change, positive = activation": "15.9%"}
{"smiles": "O=C(NCc1ccc(Cl)cc1)c1cnc2sc(N3CCOCC3)nn2c1=O", "activity change, positive = activation": "-3.34%"}
{"smiles": "COc1ccc(NC(c2nnc(-c3ccccc3)o2)c2ccccc2F)cc1Cl", "note": "(stereo not given)", "activity change, positive = activation": "-11.5%"}
{"smiles": "Cc1ccc(-c2cc(C(=O)Nc3cc([N+](=O)[O-])ccc3C)no2)cc1F", "activity change, positive = activation": "3.71%"}
{"smiles": "O=C(NCCc1ccc(Cl)cc1)c1cnc2sc(N3CCOCC3)nn2c1=O", "activity change, positive = activation": "-1.03%"}
{"smiles": "COc1cc(OC)c(Nc2nc3ccccc3c3nncn23)cc1Cl", "activity change, positive = activation": "-0.685%"}
{"smiles": "O=C(NCc1ccccc1Cl)c1ccc2c(c1)NC(=O)C(CS(=O)(=O)Cc1ccc(F)cc1Cl)N2", "note": "(stereo not given)", "activity change, positive = activation": "-24.6%"}
{"smiles": "COc1cccc(-c2cc(C(=O)Nc3c(C)nn(Cc4ccccc4Cl)c3C)no2)c1", "activity change, positive = activation": "-25.7%"}
{"smiles": "Cc1cc(C)c(S(=O)(=O)Nc2ccc(-c3ccc(N4CCC(C)CC4)nn3)cc2)cc1C", "activity change, positive = activation": "3.84%"}
{"smiles": "Cc1ccccc1C(=O)Nc1cc2c(cc1N1CCOCC1)n(C)c(=O)n2C", "activity change, positive = activation": "8.34%"}
{"smiles": "CCc1nnc(NC(=O)c2nc(S(=O)(=O)Cc3ccc(C)cc3)ncc2Cl)s1", "activity change, positive = activation": "inactive: -94.5%"}
{"smiles": "CCOC(=O)CC(NC(=O)CCc1c(C)nc2c(c(C)nn2-c2ccc(C)c(C)c2)c1C)c1ccc(C)cc1", "note": "(stereo not given)", "activity change, positive = activation": "inactive: -19.4%"}
{"smiles": "COc1ccc(-c2c3c(=O)n(C)c(=O)n(C)c3c3n2-c2ccccc2NC3c2ccc(OC)cc2)cc1", "note": "(stereo not given)", "activity change, positive = activation": "0.495%"}
{"smiles": "COc1ccc(C2NC(=O)N(C)C3=C2C(=O)N(c2cccc(Cl)c2)C3)cc1", "note": "(stereo not given)", "activity change, positive = activation": "inactive: -27.7%"}
{"smiles": "CC(=O)c1ccc(N2CCN(c3ccc(NC(=O)c4ccc(F)cc4)cc3C(=O)O)CC2)cc1", "activity change, positive = activation": "inactive: -14.4%"}
{"smiles": "CCc1ccccc1NC(=O)CN(Cc1ccccc1)S(=O)(=O)c1ccc(Br)cc1", "activity change, positive = activation": "-26.3%"}
{"smiles": "O=C(Nc1cc(Cl)cc(Cl)c1)c1ccc(F)c(S(=O)(=O)N2CCc3ccccc32)c1", "activity change, positive = activation": "inactive: -29%"}
{"smiles": "CC(C)OCCCNC(=O)c1ccc2c(c1)NC(=O)c1ccccc1S2", "activity change, positive = activation": "-36.9%"}
{"smiles": "COc1ccc(CCN2CCC(Nc3nc4ccccc4n3Cc3ccc(F)cc3)CC2)cc1", "activity change, positive = activation": "inactive: -23.2%"}
{"smiles": "COCc1nc2cccnc2n1C1CCN(S(=O)(=O)N(C)C)CC1", "activity change, positive = activation": "2.56%"}
{"smiles": "CCOC(=O)c1ccccc1NC(=O)CSc1ncc(CO)n1Cc1ccc(C)cc1", "activity change, positive = activation": "5.11%"}
{"smiles": "COc1ccccc1Nc1cc(C)nc2nc(-c3ccccc3)nn12", "activity change, positive = activation": "inactive: -9.7%"}
{"smiles": "CCCCOC(=O)c1ccc(NS(=O)(=O)c2c(C)nc3scc(C)n3c2=O)cc1", "activity change, positive = activation": "-38.5%"}
{"smiles": "CC(=O)c1cc(-c2ccc(F)cc2)n(CCC(=O)NCc2ccccc2C)c1C", "activity change, positive = activation": "-8.85%"}
